# Experimental data from PubChem BioAssay AID485294 (National Center for Advancing Translational Sciences (NCATS), 2010).
# The whole screen tested about 370,000 compounds, of which about 150 (0.041%) were called active. The shares of active, inactive and inconclusive entries below differ from those in the screen. Calls come from the whole dose curve; as a rule, active = well fitted inhibition curve with a large enough effect; inconclusive = small, poorly fitted or top-dose-only effect; inactive = flat fitted curve, though single readings scatter. Potencies of inconclusive entries are left out as doubtful fits.
# Molecular target: Beta-lactamase (Escherichia coli (strain K12)) (UniProt P00811)
# Sequence of UniProt P00811 (P00811 whole entry, looked up): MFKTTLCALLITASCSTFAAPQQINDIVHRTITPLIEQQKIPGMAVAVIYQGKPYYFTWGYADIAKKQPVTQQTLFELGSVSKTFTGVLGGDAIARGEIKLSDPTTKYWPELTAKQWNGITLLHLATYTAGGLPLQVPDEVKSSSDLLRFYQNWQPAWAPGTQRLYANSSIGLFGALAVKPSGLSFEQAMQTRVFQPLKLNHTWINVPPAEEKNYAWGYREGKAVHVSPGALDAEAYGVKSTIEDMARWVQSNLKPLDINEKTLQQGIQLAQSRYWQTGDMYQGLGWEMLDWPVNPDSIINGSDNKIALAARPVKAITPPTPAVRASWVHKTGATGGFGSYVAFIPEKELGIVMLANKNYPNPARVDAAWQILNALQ
# Test: qHTS Inhibitors of AmpC Beta-Lactamase (assay with detergent); note: nearly all actives have a fitted effect of over 25% in size;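 for activity change, negative = inhibition: 0% = no-compound wells and -100% = no-enzyme wells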
# Conditions: AmpC hydrolysis of nitrocefin, absorbance 480 nm, 0.01% Triton; activity change, negative = inhibition: at 114 µM (top of the series)
# In short: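 AmpC (5.3 nM in the dispensed reagent) in 20 mM phosphate pH 7.0 with 0.01% (detergent screen) or 0.0001% Triton X-100 was preincubated with compounds for 15 min at room temperature. Nitrocefin was then added from an 800 uM solution, and hydrolysis was followed at 480 nm.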
# Potency is the fitted concentration of half-maximal effect; tags give direction and shape of the fitted curve.
SMILES,Potency,"activity change, negative = inhibition"
CCCCOC(=O)C1C2C=C[C@]3(CN(CCCOC)C(=O)[C@H]13)O2 (some centres undefined),"inconclusive [inhibitor, full curve, poor fit]",–
COc1cc2nc(CSc3nc(-c4ccc(F)cc4)cs3)[nH]c(=O)c2cc1OC,"inconclusive [inhibitor, full curve, poor fit]",–
CN(CCOC(=O)c1cccc(F)c1)Cc1ccccc1,"inconclusive [inhibitor, single point]",–
COc1ccccc1-n1c(=S)[nH]c2c(sc(=S)n2-c2ccccc2C)c1=O,"inconclusive [inhibitor, single point]",–
Cc1cc(C(=O)COc2ccc3ccc(=O)oc3c2)c(C)n1C,–,inactive: 1.79%
Cc1ccc(C2=NNC3(CCOC(C)(C)C3)S2)cc1 (centres undefined),–,inactive: 0.633%
Cc1ccc(C(=O)C(OC(=O)CNC(=O)c2ccc(Cl)cc2)c2ccccc2)cc1 (centres undefined),"inconclusive [inhibitor, full curve, poor fit]",–
Cc1ccc(S(=O)(=O)N2CCCCC2)cc1NC(=O)COc1ccccc1F,–,inactive: -10.9%
COc1cc(C2C3=C(CC(C)(C)CC3=O)Nc3c2c(=O)[nH]c(=O)n3Cc2ccccc2)ccc1O (centres undefined),"inconclusive [inhibitor, full curve, poor fit]",–
CCc1ccc(C)[n+](CC(=O)c2cccs2)c1,–,inactive: -0.646%
COc1cccc(C(=O)NCCn2ccc3ccccc32)c1,"inconclusive [inhibitor, full curve, poor fit]",–
N=C(N)CCCOc1ccccc1-c1ccccc1,"inconclusive [inhibitor, partial curve, poor fit]",–
O=C(N/N=C/c1cccs1)c1[nH]ncc1Br,"inconclusive [inhibitor, partial curve, poor fit]",–
O=C(Nc1ccc2c(c1)C(=O)NC2=O)c1ccccc1Cl,"inconclusive [inhibitor, full curve, poor fit]",–
COc1ccc(-c2cc(C(=O)NCCc3ccccc3)c3c(-c4ccc(Cl)cc4)[nH]nc3n2)cc1,–,inactive: -3.69%
N#CC1(NC(=O)COc2ccccc2[N+](=O)[O-])CCCCC1,"inconclusive [inhibitor, full curve, poor fit]",–
CCCc1cc(=O)oc2cc(OC(=O)CN3C(=O)NC4(CCCC4)C3=O)ccc12,"inconclusive [inhibitor, full curve, poor fit]",–
COc1ccc(C(=O)Oc2cc(-c3ccc(OC)c(OC)c3)cc(=O)c3c(C)oc(C)c23)cc1,–,inactive: 14.8%
O=C(OC(C(=O)NCC1CCCO1)c1ccccc1F)c1ccco1 (centres undefined),"inconclusive [inhibitor, partial curve, poor fit]",–
